Data reported in PubChem BioAssay AID588453 (National Center for Advancing Translational Sciences (NCATS), 2011).
Screen size: about 390,000 compounds; about 4,000 (1%) were called active. Inconclusive means that the source gave no clear call. Such entries were picked first, then a sample of the others. Calls come from the whole dose curve; as a rule, active = well fitted inhibition curve with a large enough effect; inconclusive = small, poorly fitted or top-dose-only effect; inactive = no such curve, though single readings can be large or run the other way. Potencies of inconclusive entries are doubtful fits and often do not repeat.
% is set by controls: 0 for no effect and ±100 for the full control effect; potency is the fitted concentration of half-maximal effect; tags give direction and shape of the fitted curve.
Note: nearly all actives have a fitted effect of over 65% in size.

What follows are compounds tested against Thioredoxin reductase 1, cytoplasmic (Rattus norvegicus) (UniProt O89049) (assay: qHTS Assay for Inhibitors of Mammalian Selenoprotein Thioredoxin Reductase 1 (TrxR1): qHTS). Conditions: recombinant rTrxR1, NADPH fluorescence consumption, selenite substrate; series mostly up to 114 µM; activity change, negative = inhibition: at the top concentration.
UniProt O89049, sequence (O89049 whole entry, looked up): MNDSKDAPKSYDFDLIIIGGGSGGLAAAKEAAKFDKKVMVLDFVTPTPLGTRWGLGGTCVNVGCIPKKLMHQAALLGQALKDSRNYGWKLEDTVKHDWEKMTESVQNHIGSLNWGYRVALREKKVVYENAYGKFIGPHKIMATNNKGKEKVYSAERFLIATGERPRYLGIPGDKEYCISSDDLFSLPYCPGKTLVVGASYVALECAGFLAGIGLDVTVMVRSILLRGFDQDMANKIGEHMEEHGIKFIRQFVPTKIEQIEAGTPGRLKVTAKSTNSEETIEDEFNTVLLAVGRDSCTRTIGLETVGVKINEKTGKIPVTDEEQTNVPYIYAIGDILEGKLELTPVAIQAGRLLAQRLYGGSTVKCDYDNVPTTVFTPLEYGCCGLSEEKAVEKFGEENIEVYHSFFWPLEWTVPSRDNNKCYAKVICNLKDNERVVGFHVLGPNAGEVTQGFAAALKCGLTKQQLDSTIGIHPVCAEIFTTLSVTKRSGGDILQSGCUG
In short: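 Rat TrxR1 (90 nM in the dispensed reagent) was pre-reduced with 400 uM NADPH for 5 min at room temperature, then incubated with compound for 15 min. After 400 uM selenite was added, NADPH fluorescence (Ex 340/Em 450 nm) was followed for 8 min.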
For `CC(C)(C)C(=O)NCC(c1ccc2c(c1)OCO2)N1CCOCC1` (stereo not given), the “activity change, negative = inhibition” value was inactive: 28.1% [at 57.1 µM]. For `Cc1ccccc1NC(=O)Cc1nc(COC(=O)c2ccc(NC(N)=O)cc2)cs1`, the “activity change, negative = inhibition” value was inactive: 17.4%. In the case of `Cc1cccc(NC2=NC(C)(C)N=C(N)N2)c1`, the “activity change, negative = inhibition” value is reported as inactive: 2.52% [at 57.1 µM]. For `Cc1cc(=O)oc2cc(OCc3ccc(C(=O)OCC(=O)N(C)C4CCS(=O)(=O)C4)cc3)ccc12` (stereo not given), the Potency was inconclusive: 79.4 µM [inhibitor, partial curve, poor fit]. `O=c1oc2cc([N+](=O)[O-])ccc2nc1/C=C(\O)c1cccc(Br)c1` was tested, and the Potency was inconclusive: 39.8 µM [inhibitor, single point]. In the case of `CN1CCN(S(=O)(=O)c2cccc(C(=O)Nc3sccc3C(N)=O)c2)CC1`, the Potency is reported as inconclusive: 89.1 µM [inhibitor, single point]. `Cc1ccc2cc(CN(Cc3ccccc3)Cc3nnnn3C3CCCC3)c(=O)[nH]c2c1` was tested, and the “activity change, negative = inhibition” value was inactive: 14.7%. `CN(Cc1ccccc1)C(=O)c1nc[nH]c1C(=O)N1CCc2ccccc2C1` was tested, and the Potency was active: 39.8 µM. For `Cc1cccc(N2CCN(C(=O)C3CCN(S(=O)(=O)c4c(C)noc4C)CC3)CC2C)c1` (stereo not given), the Potency was “inactive”. For `O=C1C=C(Nc2cccc3cccnc23)c2ccccc2C1=O`, the Potency was inconclusive: 56.2 µM [inhibitor, single point]. With `CCCN(CCC)c1nc2c(C)cccn2c(=O)c1/C=C1/SC(=S)N(Cc2ccco2)C1=O` the Potency was inconclusive: 15.8 µM [inhibitor, partial curve, poor fit]. With `CCCS(=O)(=O)c1c(S(=O)(=O)CCC)c2cc(C(C)(C)C)ccn2c1C(=O)c1ccccc1` the “activity change, negative = inhibition” value was inactive: -7.37%. In the case of `COC(=O)c1cc(OC)c(OC)cc1NC(=S)NC(=O)c1ccco1`, the Potency is reported as active: 14.1 µM. `CCOC(=O)N1CCC(NC(=O)Cc2ccccc2)CC1` was tested, and the Potency was inconclusive: 100 µM [inhibitor, single point]. In the case of `Cc1cc2oc(=O)cc(Cn3ncc(Cl)c(Cl)c3=O)c2cc1Cl`, the Potency is reported as inconclusive: 35.5 µM [inhibitor, single point]. With `Cc1ccc(NCc2ccc(O)c3ncccc23)cc1C` the Potency was active: 2 µM. `O=C1CSC2(C(=O)N(Cc3cccc(F)c3)c3ccccc32)N1c1cccc(C(F)(F)F)c1` (stereo not given) was tested, and the “activity change, negative = inhibition” value was inactive: 23.3%. `CC(C)COc1ccc(C(=O)N2CCN(CCc3ccncc3)CC2)cc1` was tested, and the Potency was inconclusive: 39.8 µM [inhibitor, partial curve]. With `CC1CCCC(C)N1/N=C/c1ccc([N+](=O)[O-])cc1` (stereo not given) the Potency was inconclusive: 89.1 µM [inhibitor, single point]. In the case of `Cc1cccn2c(=O)c3cc(C(=O)N4COCC4(C)C)sc3nc12`, the Potency is reported as inconclusive: 100 µM [inhibitor, single point]. In the case of `COc1ccc(Cl)cc1C(Nc1cccnc1)c1ccc2cccnc2c1O` (stereo not given), the Potency is reported as active: 3.98 µM. With `Cc1oc(-c2ccccc2)cc1C(=O)NCc1ccncc1` the Potency was inconclusive: 89.1 µM [inhibitor, single point]. With `O=C(/C=C/c1ccco1)NC(=S)NNC(=O)c1ccco1` the Potency was inconclusive: 15.8 µM [inhibitor, full curve]. For `O=C(CN(C(=O)CNS(=O)(=O)c1ccc(F)cc1)c1ccccc1)NCc1ccco1`, the Potency was inconclusive: 25.1 µM [inhibitor, single point]. For `COc1ccc(CN2CCNC(=O)C2CC(=O)N(C)Cc2nc(C)cs2)c(OC)c1` (stereo not given), the Potency was inconclusive: 50.1 µM [inhibitor, partial curve, poor fit]. With `Cc1ccc(C(=O)N2CCN(c3cnn(C)c(=O)c3Cl)CC2)cc1` the Potency was inconclusive: 56.2 µM [inhibitor, partial curve, poor fit]. With `O=C(CN1C(=O)S/C(=C\c2cc(Cl)c(O)c(Cl)c2)C1=O)Nc1ccccc1` the Potency was inconclusive: 79.4 µM [inhibitor, single point]. `Cc1cccnc1NC(=O)C1CCN(S(=O)(=O)c2c(C)noc2/C=C/c2ccco2)CC1` was tested, and the Potency was inconclusive: 56.2 µM [inhibitor, partial curve, poor fit]. `COC(=O)CNc1c(-c2ccccn2)nc2ccc(Br)cn12` was tested, and the “activity change, negative = inhibition” value was inactive: -18.1%. With `Fc1cccc(Cn2cc(C(=S)N3CCCCC3)c3ccccc32)c1` the “activity change, negative = inhibition” value was inactive: -11.5%. With `COc1ccc(C(=O)Nc2cccc(/C=C(\CCC(=O)O)c3nc4ccccc4s3)c2)cc1` the Potency was inconclusive: 79.4 µM [inhibitor, single point]. For `COc1cccc(C(=O)CC(=O)C(=O)Nc2ccc([N+](=O)[O-])cc2C)c1`, the “activity change, negative = inhibition” value was inactive: -9.02%. `COc1ccc(N2CCN(C(=O)c3ccc(COc4ccc([N+](=O)[O-])cc4)o3)CC2)cc1` was tested, and the Potency was inconclusive: 79.4 µM [inhibitor, single point]. In the case of `O=C(CCCn1c(=S)[nH]c2ccsc2c1=O)NCc1ccco1`, the Potency is reported as inconclusive: 8.91 µM [inhibitor, full curve]. With `O=c1c(-c2ccccc2)c[nH]n1-c1cccc([N+](=O)[O-])c1` the “activity change, negative = inhibition” value was inactive: 0.961%. For `O=C(CCN1CCCCC1)NNC(=S)NC(=O)c1ccc(Br)cc1`, the “activity change, negative = inhibition” value was inactive: 6.13% [at 57.1 µM]. In the case of `Cc1ccc(C)c(Cn2c(=O)c3c(nc4n3CCN4c3ccccc3)n(C)c2=O)c1`, the “activity change, negative = inhibition” value is reported as inactive: 18.1%. With `CN(C)c1ccc(NC2=C([N+](=O)[O-])CS(=O)(=O)C2)cc1` the Potency was inconclusive: 0.251 µM [inhibitor, full curve, poor fit]. In the case of `Nc1nnc(SCC(=O)N2CCN(c3ccccc3)CC2)s1`, the “activity change, negative = inhibition” value is reported as inactive: 8.79% [at 57.1 µM]. For `COc1ccccc1NC(=O)NCc1ccc(C)n1C`, the Potency was inconclusive: 50.1 µM [inhibitor, partial curve]. `Cc1ccc(C)n1-c1cccc(S(=O)(=O)N2CCOCC2)c1` was tested, and the Potency was inconclusive: 3.98 µM [inhibitor, single point]. In the case of `C/C(CC(=O)Nc1ccc2ccccc2c1)=N\NC(=O)c1ccc(O)c(O)c1`, the Potency is reported as inconclusive: 39.8 µM [inhibitor, single point]. For `Cc1cccc(C)c1NC(=O)CCS(=O)(=O)c1ccc2c(c1)CC(C)N2C(=O)C1CC1` (stereo not given), the Potency was inconclusive: 79.4 µM [inhibitor, partial curve, poor fit]. With `NNC(=O)c1cc2ccccc2cc1NS(=O)(=O)c1ccccc1` the “activity change, negative = inhibition” value was inactive: 6.4% [at 57.1 µM]. In the case of `COC(=O)c1ccccc1S(=O)(=O)Oc1ccc(-c2ccc(C(=O)O)cc2)cc1`, the “activity change, negative = inhibition” value is reported as inactive: 23% [at 57.1 µM]. With `O=C1C=C(c2ccccc2)C(=O)N1Nc1ccccc1` the Potency was active: 3.16 µM. In the case of `NS(=O)(=O)c1ccc(NC(=O)CN2CCc3ccccc32)cc1`, the Potency is reported as inconclusive: 0.316 µM [inhibitor, full curve]. For `O=C(NCCN1CCOCC1)C1(C(F)(F)F)CC(CCCO)CCCO1` (stereo not given), the “activity change, negative = inhibition” value was inactive: 4.08%. `COCCn1nnnc1CN(Cc1ccco1)Cc1cc2cc3c(cc2[nH]c1=O)OCO3` was tested, and the Potency was inconclusive: 89.1 µM [inhibitor, partial curve, poor fit]. `CCOC(=O)c1ccc(S(=O)(=O)Nc2cc(S(=O)(=O)N3CCOCC3)ccc2O)cc1` was tested, and the “activity change, negative = inhibition” value was inactive: 8.91%. `Cc1ccccc1N1CC(C(=O)Nc2nnc(SCCC3OCCO3)s2)CC1=O` (stereo not given) was tested, and the Potency was inconclusive: 70.8 µM [inhibitor, single point]. `CCNC(=S)NNC(=O)c1ccc(S(=O)(=O)NCc2ccco2)cc1` was tested, and the Potency was inconclusive: 28.2 µM [inhibitor, single point]. In the case of `CC[C@]1(c2ccccc2OC)C(=O)N(C(=O)OC)N1C(=O)OC`, the Potency is reported as inconclusive: 39.8 µM [inhibitor, partial curve]. With `Cc1ccc(/C=C/C(=O)O)cc1S(=O)(=O)N(C)CCO` the Potency was inconclusive: 79.4 µM [inhibitor, partial curve, poor fit]. With `COC(=O)c1cccc(C#CC(NP(=O)(c2ccccc2)c2ccccc2)c2ccccc2)c1` (stereo not given) the Potency was inconclusive: 79.4 µM [inhibitor, single point]. With `CN1C(=O)/C(=N/OC(=O)c2ccccc2)c2ccccc21` the Potency was inconclusive: 31.6 µM [inhibitor, single point]. With `COc1ccc(CCNS(=O)(=O)c2ccc(F)c(C(=O)Nc3ccc(Cl)cc3)c2)cc1OC` the “activity change, negative = inhibition” value was inactive: -3.39% [at 57.1 µM]. For `CN(C)/C=C/C(=O)c1cnc(-c2ccccc2Cl)s1`, the “activity change, negative = inhibition” value was inactive: -9.71%. For `COc1ccc(OCCNC(=O)c2cccc(Oc3ccc(C(F)(F)F)cc3[N+](=O)[O-])c2)cc1`, the “activity change, negative = inhibition” value was inactive: -35.2%. In the case of `CCOc1cc(NC(=S)NCCCN2CCOCC2)c(OCC)cc1NC(=O)c1ccco1`, the Potency is reported as inconclusive: 12.6 µM [inhibitor, full curve, poor fit]. In the case of `CCOC(=O)c1cc(C#N)c(=S)[nH]c1C`, the Potency is reported as active: 7.94 µM. For `O=C(/C(Br)=C/Nc1cc(Cl)ccc1Cl)C(F)(F)F`, the Potency was active: 39.8 µM. For `O=C(O)CC/C(=N/NC(=O)CNC(=O)Cc1ccccc1)c1ccccc1`, the Potency was inconclusive: 89.1 µM [inhibitor, single point]. `COC(=O)c1ccc(CSc2ccc3nnc(-c4cccc(F)c4)n3n2)o1` was tested, and the Potency was inconclusive: 89.1 µM [inhibitor, single point]. For `COc1ccc(C2=NS(=O)(=O)N(C)C(C(=O)N3CCCCC3C)=C2)cc1` (stereo not given), the Potency was inconclusive: 17.8 µM [inhibitor, single point]. In the case of `Cc1cc(C)c2nc(N3C(=O)C(O)=C(C(=O)c4ccco4)C3c3ccc(O)cc3)sc2c1` (stereo not given), the “activity change, negative = inhibition” value is reported as inactive: -20.5%. With `CCOc1cc(/C=C2/C(=N)N3C(=NC2=O)SN=C3S(=O)(=O)C(C)C)ccc1OC(=O)c1ccco1` the Potency was inconclusive: 28.2 µM [inhibitor, partial curve]. With `O=S(=O)(/N=C(/Sc1ccc(Cl)cc1)c1ccccc1)c1ccccc1` the Potency was inconclusive: 15.8 µM [inhibitor, full curve, poor fit]. For `Cc1ccc(-c2nc3nc(C)cc(N4CCN(c5cccc(C)c5)C(C)C4)n3n2)cc1` (stereo not given), the “activity change, negative = inhibition” value was inactive: 1.15%. For `O=C(NC1CCCCC1)C(c1ccco1)N(C(=O)c1csnn1)c1cccc(Cl)c1` (stereo not given), the activity change, negative = inhibition was inactive: 15.4% [at 0.0914 µM].
